Measured values reported in the RNAGym collection of RNA variant scans (doi:10.1073/pnas.2313332121).
This sample is rich in variants without activity.

B1: TPR 5TU (parent)
chain: GGAUCUUCUCGAUCUAACAAAAAAGACAAAUCUGCCACAAAGCUUGAGAGCAUCUUCGGAUGCAGAGGCGGCAGCCUUCGGUGGCGCGAUAGCGCCAACGUUCUCAACUAUGACACGCAAAACGCGUGCUCCGUUGAAUGGAGUUUAUCAUG

Variants of: B1
Assay: polymerase ribozyme fitness, log enrichment relative to wild type (log ratio); higher = more active; in vitro selection for triplet polymerase activity
Procedure, shortened: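 One round of in vitro selection, in triplicate, was applied to PCR-built, transcribed mutant libraries of each subunit of a heterodimeric triplet polymerase ribozyme. The steps were annealing with a biotinylated primer, partner subunit and triplets, incubation frozen at −7 °C, gel excision of extended constructs, streptavidin-bead capture and RT-PCR. Fitness is the logarithm, base 2, of genotype enrichment over wild-type enrichment from inverse-variance-weighted replicate averages of Illumina-sequenced inputs and outputs, keeping genotypes with ≥10 input reads and ≥1 read per output.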

Polymerase ribozyme fitness (log ratio), -4.18:
GGAUCUUCUCGAUCUAACAAAAAAGACAAAUCUGCCACAAAGCAUGAGAGCAUCUUCGGAUGCAGAGGCGGCAGCCUUCGGAGGCGCGAUAGCGCCAACGUUCUCAACUAUGACACGCAAAACGCGUGCUCCGUUGAAUGGAGUUUAUCAUG [U44A U82A]

Polymerase ribozyme fitness (log ratio), ≤ -4.2:
GGAUCUUCUCGAUCUAACAAAAAAGACAAAUCUGCCACAAAGCAAGAGAGCAUCUUCGGAUGCAGAGGCGGCAGCAUUCGGUGGCAGGAUAGCGCCAACGUUCUCAACUAUGACACGUAAUACGCGUGCUCCGUUGAAUGGAGUUUAUCAUG [U44A U45A C76A G86A C87G C118U A121U]
GGAUCUUCUCGAUCUAACAAAAAAGACAAAUCUGCCACAAAGCCUGAGAGCAUCUUCGGAUGCUGAGGCGGCAGCCUUCGGUGGGGCGGUAGCGCCAACGUUCUCACCUAUGACACGCAAAACGCGUACUCCGUUGAAUGGAGUUUAUCCUG [U44C A64U C85G A89G A107C G128A A150C]
GGAUCUUCUCGAUCUAACAAAAAAGACAAAUCUGCCACAAAGCAUGAGAGCAUCUUCGGAUGCAGAGGCGGCAGCCUUCGGUCGCGCGAUAGCGCCAACGUUCUCAACUAUGACACGCAAAACGCGUGCUCCGUUGAAUGGAGUUUAUCAUG [U44A G83C]
GGAUCUUCUCGAUCUAACAAAAAAGACAAAUCUGCCACAAAGCAUGAGAGCAUCGUCGGAUGCAGAGGCGACAGCCUUCGGUGGCGCGAUGGCGCCAACGUUCUCAACUAUGACACGCAAAACGCGUGCUCCGUUGAAUGGAGUUCAUCAUG [U44A U55G G71A A91G U146C]
GGAUCUUCUCGAUCUAACAAAAAAGACAAAUCUGCCACAAAGCGUGAGAGCGUCUUCGGAUGCAGAGGCGGCAGCCUUAGGUGGCGCGAUAGCGCCAACGUUAUCAACUAUGACACGCAAUACGCGUGCUCCGUUGAAUGGAGUUUAUCAUG [U44G A52G C79A C103A A121U]
GGAUCUUCUCGAUCUAACAAAAAAGACAAAUCUGCCACAAAGCCUGAGAGCAUCUUCGUAUGCAGAGGCGGCAGCCUUCGGUGGCGCGAUAACGCCAACGUUCUCAACUAUGACACGCAAAACGCGUGCUCCGUAGAAUGGAGUUUAUCAUG [U44C G59U G92A U135A]
GGAUCUUCUCGAUCUAACAAAAAAGACAAAUCUGCCACAAAGCCUGAGAGCAUCUUCGGAUGCAGAGGCGGCAGCCUUCGGUGGCCCGAGAGCGCCCAUGUUCUCAACUAUGACACGCAAAACGCGUGCUCCGUUGAAUGGAGUUGAUCGUG [U44C G86C U90G A97C C99U U146G A150G]
GGAUCUUCUCGAUCUAACAAAAAAGACAAAUCUGCCACAAAGCAUGAGAGCAACUUUGGAUGCAGAGGCGGCAGCCAACGGUGUCGCGAUAGCGCCAACGUUCUCAACUAUGAUACGCAAACAGAGUGCUCCGUUGAAUGGAGUUCAUCAUG [U44A U53A C57U U77A U78A G84U C114U A122C C123A C125A U146C]
GGAUCUUCUCGAUCUAACAAAAAAGACAAAUCUGCCACAAAGCACGAGAGCGUCUUCGGAUGCAGAGGCGGCAGCCUUCGGUGGCGCGAUAGCGCUAACGUUCUCAACUAUGACUCGCAAAACGCGUGCUCCGUUGAAUGGAGUUUAUCAUG [U44A U45C A52G C96U A115U]
GGAUCUUCUCGAUCUAACAAAAAAGACAAAUCUGCCACAAAGCAUGAGAGCAUCGUCGGAUGCAGAGGCGGCAGCCUUCGGUGGCGAGAUAGCGCCAACGUUCUCAACUAUGACACGCAAAACGCGUGCUCCGUUGAAUGGAGUUUAUCAUG [U44A U55G C87A]
GGAUCUUCUCGAUCUAACAAAAAAGACAAAUCUGCCACAAAGCCUGAGAGCAUCUUCGGAUGCAGAGGCGGCAGCCUUCGGUGGCGCGAUAGCACCAACGUUCUCAACUAUGACACGCAAAACGCGUGCUCCGUUGAAUGGACUUUAUCAUG [U44C G94A G143C]
GGAUCUUCUCGAUCUAACAAAAAAGACAAAUCUGCCACAAAGCCUGAGAGCAUCUUCGGAUGCAGAGGCGGCAGCCUUCGGUGGAACGAUAGCGCCAACGUUCUCAACUAUGACACGCAAAACGCGUGCUCCGUUGAAUGGAGUAUAUCAUG [U44C C85A G86A U145A]
GGAUCUUCUCGAUCUAACAAAAAAGACAAAUCUGCCACAAAGCAGGAGAGCAUCUUAGGAUGCAGAGUCGGCAGCCUUCGGUGGCGCGAAAGCGCCAACGUUCUCAACUAUGACACGCAAAACGCGUGCACCGUUGAAUGGAGUUUAACAUG [U44A U45G C57A G68U U90A U130A U148A]
GGAUCUUCUCGAUCUAACAAAAAAGACAAAUCUGCCACAAAGCCUGAGAGCAUCUUCAGAUGCGGAGGCGGCAGCCUUCGGUGGCGCGAUAGGGCCAACGUUCUCAACUAUGACACGCGAAACGCGUGCUCCGUUGAAUGGAGUUUAUCAUG [U44C G58A A64G C93G A119G]
GGAUCUUCUCGAUCUAACAAAAAAGACAAAUCUGCCACAAAGCCUGAGAGCAUCUUCGAAUGCAGAGGCGGCAGCCUUCGGUGGCGCGAUAGCGCCAACGUUCUCAACUAUGACACGCAAAACGCGUGCUCCGUUGAAUGCAGUUUAUCAUG [U44C G59A G141C]
GGAUCUUCUCGAUCUAACAAAAAAGACAAAUCUGCCACAAAGCAUGAGAGCAUCAUCGGAUGCAGAGGCGGCAGCCUUCGGUGGUGCGAUAGCGCCAACGUUCUCAAUUAUGACACGCAAAACGCCUGCUCCGUUGAAUGGAGUUUAUCAUG [U44A U55A C85U C108U G126C]
GGAUCUUCUCGAUCUAACAAAAAAGACAAAUCUGCCACAAAGCCUGAGAGCAUCUUCGGAUGCAGAGGCGGCAGCCUUCGGUGGCGCGAUAGCGCCAACGUUCUCAUCUAUGACACGCAAAACGCGUGCUCCGUUGAAUGGAGUUUAUCAUG [U44C A107U]
GGAUCUUCUCGAUCUAACAAAAAAGACAAAUCUGCCACAAAGCGUGAGCGCAUCUUCGGAUGCAGAGGCGGCAGCCUUCGGUGGCGGGAUAGCGCCAUCGUUCUCAACUAUGACACGCAAAACGCGUGCUCCGUUGAAUGGAGUUUAUCAUG [U44G A49C C87G A98U]
GGAUCUUCUCGAUCUAACAAAAAAGACAAAUCUGCCACAAAGCGUGAGUGCAUCUUCGGAUGCAGACGCGGCAGCCUUCGGUUGCGCGCUAGCGCCAACGUUCUCAACUAUGACACGCAAAACGCGUGCUCCGUUGAAUGGAGUUUAUCAUG [U44G A49U G67C G83U A89C]
GGAUCUUCUCGAUCUAACAAAAAAGACAAAUCUGCCACAAAGCCUUAGAGCAUCUUCGGAUGCAGAGGCGGCGGCCUUAGGUGGCGCGAUAGCGCCAGCGUUCUCAACUAUGACACGCAAAACGCGUGCUCCGUUGAAUGGAGUUUAUCAUG [U44C G46U A73G C79A A98G]
GGAUCUUCUCGAUCUAACAAAAAAGACAAAUCUGCCACAAAGCAUGAGAGCAUCUUCCGAUGCAGAGGCGGCAGCCUUCGGUGGCGCGAUGGCGCCAACGUUCUCAACUAUGACCCGCAAAACGCGUGCUCCGUUGAAUGGAGUUUAUCAUG [U44A G58C A91G A115C]
GGAUCUUCUCGAUCUAACAAAAAAGACAAAUCUGCCACAAAGCAUGAGAGCAUCUUCGGAUGCAGAGGCGGCAGCCGUCGGUGGCGCGAUAGCGCCAACGUUCUCAACUAUGACACGCAAAACGCGUGCUCCGUUGAAUGGAGUUUAUCGUG [U44A U77G A150G]
GGAUCUUCUCGAUCUAACAAAAAAGACAAAUCUGCCACAAAGCCUGAGAGCAUCUUGGGAUGCAGAGGCGGCAGCCUUCGGGGGGGCGAUAGCGCCAACGUUCUCAACUAUGUCACGCAAAACGCGUGCUCCGUUGAAUCGAGUUUAUCAUG [U44C C57G U82G C85G A113U G140C]
GGAUCUUCUCGAUCUAACAAAAAAGACAAAUCUGCCACAAAGCAUGAGAGCAUCAUCGGAUGGAGAGGCGGCAGCCUUCGGUGGUGGGAUAUCGCCAACGUUCUCAACUAUGACACGCAAAACGCGUGCUCCGUUGAAUGGAGUUUAUCAUG [U44A U55A C63G C85U C87G G92U]
GGAUCUUCUCGAUCUAACAAAAAAGACAAAUCUGCCACAAAGCGUGAGAGUAUCUUCGGAUGCAGAGGCGGCAACCUUCGGUGGCGCGAUAGCCCCAACGUUCUCAACUAUGACACGCAUAACGCGUGCUCCGUUGAAUGGAGUUUAUGAUG [U44G C51U G74A G94C A120U C149G]
GGAUCUUCUCGAUCUAACAAAAAAGACAAAUCUGCCACAAAGCAUGAGAGCAUCUUCGGAUUCAGAGGCGGCAGCCUUCCGUGGCGCGAUAGCGCCAACGUUCUCAACUAUGACACGCAAAACGCGUGCUCCGUUGAAUCGAGUUUAUCAUG [U44A G62U G80C G140C]
GGAUCUUCUCGAUCUAACAAAAAAGACAAAUCUGCCACAAAGCGUGAGAGCAUCUUCGGAUGCAGAGGCGGCUGCCUUCGGUGGUGCGAUAGCGCCAACGUUCUCAACGAUGACACGCAAAACGCGUGCUCCGUUGAAUGGAGUUUAUCAUG [U44G A73U C85U U109G]
GGAUCUUCUCGAUCUAACAAAAAAGACAAAUCUGCCACAAAGCAUGAGAGCAUCUUCGGAUGCAGAAGCGGCAGCCUUCGGUGGCGCGAUAGCGCCAAGGUUCUCAACUAUGACACGCAAAACGCGUGCUCCGUUGAAUGGAGUUUAUCAUG [U44A G67A C99G]
GGAUCUUCUCGAUCUAACAAAAAAGACAAAUCUGCCACAAAGCAUGAGAGCAUCAUCGGAUGCAGAGGCGGCAUCCUUCGGUGGCGCGAUAGCGCCAACGUUCUCAACUAUGACACGCAAAACGCGUGCUCCGUUGAAUGGAGUUUAUCAUG [U44A U55A G74U]
GGAUCUUCUCGAUCUAACAAAAAAGACAAAUCUGCCACAAAGCAUGAGAGCAUCUUCGGAUGCAGAGGCGGCAGCCUUCAGUGGCGCGAUAGUGUCAACGUUCUCAACUAUGACACGCAAAACGCGUGCUCCGUUGAAUGGAGUUUAUCAUG [U44A G80A C93U C95U]
GGAUCUUCUCGAUCUAACAAAAAAGACAAAUCUGCCACAAAGCGUGAGAGCAUCUUCGGAUGCAGAGGCGGCAGCCUUCGGUGGCGCGAUCGCGCCAACGUUCUCAACUAUGACACGCAAAACGCAUGCUCCGUUGAAUGGACUUUAUCAUG [U44G A91C G126A G143C]
GGAUCUUCUCGAUCUAACAAAAAAGACAAAUCUGCCACAAAGCAUGAGAGCAUCUUCGGAUGCAGAGGCGGCAGCCUUCGGUUGCGCGAUAGCGCCAUCGUUCUCAACUAUGACACGCAAAACGCGUGCUCCGUUGAAUGGAGUUUAUCAUG [U44A G83U A98U]
GGAUCUUCUCGAUCUAACAAAAAAGACAAAUCUGCCACAAAGCAUGAGAGCAUCUUCGCAUGCAGAGGCGGCAGCCUUCGGUGGCGCGAUAGCCCCAACGUUGUCAACUAUGACACGCAAAACGCGUGCUCCGUUGAAUGGAUUUUAUCAUG [U44A G59C G94C C103G G143U]
GGAUCUUCUCGAUCUAACAAAAAAGACAAAUCUGCCACAAAGCAUGAGAGCAACUUCGGAUGCAGAGGCGGCAGCCUUGGGUGGGGCGAUAGCGCCAACGUUCUCAACUAUGACACGCGAAACGCGUGCUCCGUGGAAUGGAGUUUAUCAUG [U44A U53A C79G C85G A119G U135G]
GGAUCUUCUCGAUCUAACAAAAAAGACAAAUCUGCCACAAAGCAUGAGAGCAUCUUCAGAUGCAGAGGCGGCAGCCUUCGGUGGCGCGAUAGUGCGGUCGUUCUCAACUAUGACACGCGAAACGCGUGCUCCGUUGAAUGGAGCUUAUCUUG [U44A G58A C93U C96G A97G A98U A119G U144C A150U]
GGAUCUUCUCGAUCUAACAAAAAAGACAAAUCUGCCACAAAGCAUGAGAGCAUCUUCGGAUGCAGAGGCGGCAGCCUUCGGUGGCGCGAUAGCGCCAACGUUCUCAACUAUGACACGCAAAACGCGUGCUCCGUUUAAUGGAGUUUAUCAUG [U44A G136U]

Polymerase ribozyme fitness (log ratio), -3.62:
GGAUCUUCUCGAUCUAACAAAAAAGACAAAUCUGCCACAAAGCAUGAGAGCAUCUUCGGAUGCAGAGGCGGCAGCCUUCGGUGGCGCGAUAGCGCCAACGUUCUCAACUAUGACACGCAAAACGCGUGCUCCGUUGAAUGGAGCUUAUCAUG [U44A U144C]
